Measurements: the supplement of paper PMC4604168 (melanoma cell lines)
Some of the results follow. Most values come without repeats; read them as rough.

System: COLO800
Experiment: cell count relative to DMSO control; melanoma cells; higher = more viable cells
Conditions: library dose: low library concentration; 72 h
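Further: cell number obtained by counting DAPI-stained nuclei in high-throughput microscope images with image analysis software, screen run in 1,536-well plates.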

Question: Which cell count does the source give for COc1ccc(COc2ccc(Cc3cnc(N)nc3N)cc2OC)cc1 + Cc1cc(SCc2sc(-c3ccc(C(F)(F)F)c(F)c3)nc2C)ccc1OCC(=O)O [GW0742] (first compound 1 µM, partner dose 2 µM) here?
Answer: The cell count was 94.1%.

Question: With Clc1ccc(Nc2nnc(Cc3ccncc3)c3ccccc23)cc1 [vatalanib] + C[As](C)SC[C@H](NC(=O)CC[C@H](N)C(=O)O)C(=O)NCC(=O)O [Darinaparsin] (first compound 2 µM, partner dose 0.4 µM) as the compound, how does the cell count read?
Answer: The cell count was 79.2%.

Question: With COc1ccc(COc2ccc(Cc3cnc(N)nc3N)cc2OC)cc1 + C/C(O)=C(\C#N)C(=O)Nc1cc(Br)ccc1Br [LFM-A13] (first compound 1 µM, partner dose 2 µM) as the compound, how does the cell count read?
Answer: Its cell count is 81.8%.

Question: How did the cell count turn out when COCC[n+]1c2c(n(Cc3cnccn3)c1C)C(=O)c1ccccc1C2=O + Cc1cc(SCc2sc(-c3ccc(C(F)(F)F)c(F)c3)nc2C)ccc1OCC(=O)O [GW0742] (first compound 0.0004 µM, partner dose 2 µM) was run?
Answer: The cell count was 99.9%.

Question: How did the cell count turn out when O=C(CCCCCCC(=O)Nc1ccccc1)NO [vorinostat] + Cc1cc(SCc2sc(-c3ccc(C(F)(F)F)c(F)c3)nc2C)ccc1OCC(=O)O [GW0742] (first compound 0.08 µM, partner dose 2 µM) was run?
Answer: The cell count was 103%.

Question: How did the cell count turn out when Cc1cc(Nc2cc(N3CCN(C)CC3)nc(Sc3ccc(NC(=O)C4CC4)cc3)n2)n[nH]1 [Tozasertib] + C[C@]12O[C@H](C[C@]1(O)CO)n1c3ccccc3c3c4c(c5c6ccccc6n2c5c31)CNC4=O [Lestaurtinib] (first compound 0.006 µM, partner dose 0.004 µM) was run?
Answer: Its cell count is 77.8%.

Question: For O=C(O)c1ccc2c(c1)nc(Nc1cccc(Cl)c1)c1ccncc12 + C[As](C)SC[C@H](NC(=O)CC[C@H](N)C(=O)O)C(=O)NCC(=O)O [Darinaparsin] (first compound 0.4 µM, partner dose 0.4 µM), which cell count is on record?
Answer: The cell count was 88%.

Question: Which cell count does the source give for Cn1c(Nc2ccc(C(F)(F)F)cc2)nc2cc(Oc3ccnc(-c4ncc(C(F)(F)F)[nH]4)c3)ccc21 + Cc1cc(SCc2sc(-c3ccc(C(F)(F)F)c(F)c3)nc2C)ccc1OCC(=O)O [GW0742] (first compound 0.08 µM, partner dose 2 µM) here?
Answer: Its cell count is 80.1%.

Question: Which cell count does the source give for C#Cc1cccc(Nc2ncnc3cc(OCCOC)c(OCCOC)cc23)c1 [erlotinib] + O=C(Oc1ccc([N+](=O)[O-])cc1)N1CCC(C(O)(c2ccc3c(c2)OCO3)c2ccc3c(c2)OCO3)CC1 [JZL184] (first compound 0.8 µM, partner dose 1 µM) here?
Answer: The cell count was 94.2%.

Question: How did the cell count turn out when Cc1cc(Nc2cc(N3CCN(C)CC3)nc(Sc3ccc(NC(=O)C4CC4)cc3)n2)n[nH]1 [Tozasertib] + Cn1cc(C2=C(c3cn(C4CCN(Cc5ccccn5)CC4)c4ccccc34)C(=O)NC2=O)c2ccccc21 [Enzastaurin] (first compound 0.006 µM, partner dose 0.8 µM) was run?
Answer: The cell count was 73.2%.

Question: Which cell count does the source give for O=C(CCCCCCC(=O)Nc1ccccc1)NO [vorinostat] + C/C(O)=C(\C#N)C(=O)Nc1cc(Br)ccc1Br [LFM-A13] (first compound 0.08 µM, partner dose 2 µM) here?
Answer: The cell count was 72.8%.

Question: For Oc1cc(-c2nc(-c3ccccc3)[nH]c2-c2ccncc2)ccc1Cl + C/C(O)=C(\C#N)C(=O)Nc1cc(Br)ccc1Br [LFM-A13] (first compound 0.2 µM, partner dose 2 µM), which cell count is on record?
Answer: The cell count was 166%.

Question: Which cell count does the source give for c1cc(-c2cnn3cc(-c4ccc(OCCN5CCCCC5)cc4)cnc23)ccn1 [Dorsomorphin] + O=C(Oc1ccc([N+](=O)[O-])cc1)N1CCC(C(O)(c2ccc3c(c2)OCO3)c2ccc3c(c2)OCO3)CC1 [JZL184] (first compound 0.4 µM, partner dose 1 µM) here?
Answer: Its cell count is 115%.

Question: How did the cell count turn out when CN1CCN(c2ccc3nc(-c4c(N)c5c(F)cccc5[nH]c4=O)[nH]c3c2)CC1 [Dovitinib] + C[As](C)SC[C@H](NC(=O)CC[C@H](N)C(=O)O)C(=O)NCC(=O)O [Darinaparsin] (first compound 0.1 µM, partner dose 0.4 µM) was run?
Answer: The cell count was 103%.

Question: For Cc1cc(Nc2cc(N3CCN(C)CC3)nc(Sc3ccc(NC(=O)C4CC4)cc3)n2)n[nH]1 [Tozasertib] + C[As](C)SC[C@H](NC(=O)CC[C@H](N)C(=O)O)C(=O)NCC(=O)O [Darinaparsin] (first compound 0.006 µM, partner dose 0.4 µM), which cell count is on record?
Answer: Its cell count is 80.5%.

Question: C#Cc1cccc(Nc2ncnc3cc(OCCOC)c(OCCOC)cc23)c1 [erlotinib] + C/C(O)=C(\C#N)C(=O)Nc1cc(Br)ccc1Br [LFM-A13] (first compound 0.8 µM, partner dose 2 µM) was tested. Which cell count did it give?
Answer: Its cell count is 82.6%.

Question: Oc1nc(-c2ccc(C(F)(F)F)cc2)nc2c1CSCC2 + O=C(Oc1ccc([N+](=O)[O-])cc1)N1CCC(C(O)(c2ccc3c(c2)OCO3)c2ccc3c(c2)OCO3)CC1 [JZL184] (first compound 2 µM, partner dose 1 µM) was tested. Which cell count did it give?
Answer: Its cell count is 130%.

Question: For C[C@@H]1CCN(C(=O)CC#N)C[C@@H]1N(C)c1ncnc2[nH]ccc12 + Cc1cc(SCc2sc(-c3ccc(C(F)(F)F)c(F)c3)nc2C)ccc1OCC(=O)O [GW0742] (first compound 1 µM, partner dose 2 µM), which cell count is on record?
Answer: Its cell count is 85.9%.

Question: How did the cell count turn out when COc1cc2ncnc(Nc3ccc(Oc4ccccc4)cc3)c2cc1OC + O=C(Oc1ccc([N+](=O)[O-])cc1)N1CCC(C(O)(c2ccc3c(c2)OCO3)c2ccc3c(c2)OCO3)CC1 [JZL184] (first compound 2 µM, partner dose 1 µM) was run?
Answer: Its cell count is 100%.

Question: C[C@@H]1CCN(C(=O)CC#N)C[C@@H]1N(C)c1ncnc2[nH]ccc12 + C/C(O)=C(\C#N)C(=O)Nc1cc(Br)ccc1Br [LFM-A13] (first compound 1 µM, partner dose 2 µM) was tested. Which cell count did it give?
Answer: Its cell count is 95%.

Question: COCC[n+]1c2c(n(Cc3cnccn3)c1C)C(=O)c1ccccc1C2=O + C/C(O)=C(\C#N)C(=O)Nc1cc(Br)ccc1Br [LFM-A13] (first compound 0.0004 µM, partner dose 2 µM) was tested. Which cell count did it give?
Answer: Its cell count is 40.4%.

Question: How did the cell count turn out when Cc1cc(Nc2cc(N3CCN(C)CC3)nc(Sc3ccc(NC(=O)C4CC4)cc3)n2)n[nH]1 [Tozasertib] + N.N.[Cl][Pt][Cl] [cisplatin] (first compound 0.006 µM, partner dose 1.6 µM) was run?
Answer: Its cell count is 84.9%.

Question: Which cell count does the source give for COc1cc2ncnc(Nc3ccc(Oc4ccccc4)cc3)c2cc1OC + C/C(O)=C(\C#N)C(=O)Nc1cc(Br)ccc1Br [LFM-A13] (first compound 2 µM, partner dose 2 µM) here?
Answer: Its cell count is 85.6%.

Question: Which cell count does the source give for O=C(O)C(=O)Nc1sc2c(c1C(=O)O)CCNC2 + O=C(Oc1ccc([N+](=O)[O-])cc1)N1CCC(C(O)(c2ccc3c(c2)OCO3)c2ccc3c(c2)OCO3)CC1 [JZL184] (first compound 1.66667 µM, partner dose 1 µM) here?
Answer: Its cell count is 132%.

Question: CC(C)C[C@H](NC(=O)[C@H](Cc1ccccc1)NC(=O)c1cnccn1)B(O)O [Bortezomib] + N.N.[Cl][Pt][Cl] [cisplatin] (first compound 0.001 µM, partner dose 1.6 µM) was tested. Which cell count did it give?
Answer: The cell count was 53.4%.

Question: Which cell count does the source give for CC(C)C[C@H](NC(=O)[C@H](Cc1ccccc1)NC(=O)c1cnccn1)B(O)O [Bortezomib] + C[As](C)SC[C@H](NC(=O)CC[C@H](N)C(=O)O)C(=O)NCC(=O)O [Darinaparsin] (first compound 0.001 µM, partner dose 0.4 µM) here?
Answer: Its cell count is 79.7%.

Question: How did the cell count turn out when Cc1nc(Nc2ncc(C(=O)Nc3c(C)cccc3Cl)s2)cc(N2CCN(CCO)CC2)n1 [dasatanib] + C/C(O)=C(\C#N)C(=O)Nc1cc(Br)ccc1Br [LFM-A13] (first compound 0.004 µM, partner dose 2 µM) was run?
Answer: The cell count was 75.2%.

Question: Which cell count does the source give for Cn1c(Nc2ccc(C(F)(F)F)cc2)nc2cc(Oc3ccnc(-c4ncc(C(F)(F)F)[nH]4)c3)ccc21 + O=C(Oc1ccc([N+](=O)[O-])cc1)N1CCC(C(O)(c2ccc3c(c2)OCO3)c2ccc3c(c2)OCO3)CC1 [JZL184] (first compound 0.08 µM, partner dose 1 µM) here?
Answer: The cell count was 82.7%.

Question: How did the cell count turn out when C#Cc1cccc(Nc2ncnc3cc(OCCOC)c(OCCOC)cc23)c1 [erlotinib] + C[As](C)SC[C@H](NC(=O)CC[C@H](N)C(=O)O)C(=O)NCC(=O)O [Darinaparsin] (first compound 0.8 µM, partner dose 0.4 µM) was run?
Answer: Its cell count is 68.4%.

Question: How did the cell count turn out when Nc1ccn([C@@H]2O[C@H](CO)[C@@H](O)C2(F)F)c(=O)n1 [gemcitabine] + C[As](C)SC[C@H](NC(=O)CC[C@H](N)C(=O)O)C(=O)NCC(=O)O [Darinaparsin] (first compound 0.0004 µM, partner dose 0.4 µM) was run?
Answer: Its cell count is 66%.

Question: Which cell count does the source give for COc1cc(N2CCC(N3CCN(C)CC3)CC2)ccc1Nc1ncc(Cl)c(Nc2ccccc2S(=O)(=O)C(C)C)n1 + O=C(Oc1ccc([N+](=O)[O-])cc1)N1CCC(C(O)(c2ccc3c(c2)OCO3)c2ccc3c(c2)OCO3)CC1 [JZL184] (first compound 0.08 µM, partner dose 1 µM) here?
Answer: Its cell count is 94%.

Question: Cn1c(Nc2ccc(C(F)(F)F)cc2)nc2cc(Oc3ccnc(-c4ncc(C(F)(F)F)[nH]4)c3)ccc21 + C/C(O)=C(\C#N)C(=O)Nc1cc(Br)ccc1Br [LFM-A13] (first compound 0.08 µM, partner dose 2 µM) was tested. Which cell count did it give?
Answer: Its cell count is 64.7%.

Question: For CO[C@H]1C[C@@H]2CC[C@@H](C)[C@@](O)(O2)C(=O)C(=O)N2CCCC[C@H]2C(=O)O[C@H]([C@H](C)C[C@@H]2CC[C@@H](OCCO)[C@H](OC)C2)CC(=O)[C@H](C)/C=C(\C)[C@@H](O)[C@@H](OC)C(=O)[C@H](C)C[C@H](C)/C=C/C=C/C=C/1C [everolimus] + C[As](C)SC[C@H](NC(=O)CC[C@H](N)C(=O)O)C(=O)NCC(=O)O [Darinaparsin] (first compound 0.02 µM, partner dose 0.4 µM), which cell count is on record?
Answer: The cell count was 98.9%.

Question: For C=CCn1c(=O)c2cnc(Nc3ccc(N4CCN(C)CC4)cc3)nc2n1-c1cccc(C(C)(C)O)n1 + O=C(Oc1ccc([N+](=O)[O-])cc1)N1CCC(C(O)(c2ccc3c(c2)OCO3)c2ccc3c(c2)OCO3)CC1 [JZL184] (first compound 0.02 µM, partner dose 1 µM), which cell count is on record?
Answer: Its cell count is 76.6%.
